This note sets out measurements from a collection of fitness landscapes (doi:10.1126/science.1257360).

The chains are these.
B1: PhoQ; a variant is named by its letters at X, in order, P23837 (parent)
chain: MKKLLRLFFPLSLRVRFLLATAAVVLVLSLAYGMVALIGYSVSFDKTTFRLLRGESNLFYTLAKWENNKLHVELPENIDKQSPTMTLIYDENGQLLWAQRDVPWLMKMIQPDWLKSNGFHEIEADVNDTSLLLSGDHSIQQQLQEVREDDDDAEMTHSVAVNVYPATSRMPKLTIVVVDTIPVELKSSYMVWSWFIYVLSANLLLVIPLLWVAAWWSLRPIEALAKEVRELEEHNRELLNPATTRELTSLVRNLNRLLKSERERYDKYRTTLTDLTHSLKTPLXXLQXXLRSLRSEKMSVSDAEPVMLEQISRISQQIGYYLHRASMRGGTLLSRELHPVAPLLDNLTSALNKVYQRKGVNISLDISPEISFVGEQNDFVEVMGNVLDNACKYCLEFVEISARQTDEHLYIVVEDDGPGIPLSKREVIFDRGQRVDTLRPGQGVGLAVAREITEQYEGKIVAGESMLGGARMEVIFGRQHSAPKDE

Some of the results follow.

In the assay the parent is B1. The assay can be described thus: enrichment ratio after two sorts for PhoP signalling (ratio (wild type AVST 3.29)); higher = more functional. To be noted: with PhoP (E. coli).
Consider TESR, for which the enrichment ratio is 6.55.

For the variant PAMW, the enrichment ratio was not above 0.25.

As to LEQS, the enrichment ratio is not above 0.25.

Turning to EYIL, the enrichment ratio is not above 0.25.

On to NWGW, for which the enrichment ratio was not above 0.25.

MGDS: the enrichment ratio is not above 0.25.

With PFYM, the enrichment ratio was not above 0.25.

Take ITYP: the enrichment ratio was not above 0.25.

Take GYSG: the enrichment ratio was not above 0.25.

In the case of KCDG, the enrichment ratio was not above 0.25.

As to MMHC, the enrichment ratio was not above 0.25.

On to FAWI, for which the enrichment ratio was not above 0.25.

As to ALNA, the enrichment ratio was not above 0.25.

Consider SDWH, for which the enrichment ratio was not above 0.25.

With PEIQ, the enrichment ratio is not above 0.25.

For TCRW, the enrichment ratio was not above 0.25.

On to GGIQ, for which the enrichment ratio was not above 0.25.

For the variant YNGK, the enrichment ratio was not above 0.25.

With NMHW, the enrichment ratio is not above 0.25.

As to DVHS, the enrichment ratio is not above 0.25.

In the case of AAWN, the enrichment ratio was not above 0.25.

Consider GSPT, for which the enrichment ratio is not above 0.25.

In the case of MAFC, the enrichment ratio was not above 0.25.

Turning to PVHG, the enrichment ratio is not above 0.25.

For SITL, the enrichment ratio was determined as 18.5.

VGVI: the enrichment ratio was not above 0.25.

Take IKHT: the enrichment ratio was not above 0.25.

SDPM: the enrichment ratio is not above 0.25.

As to DHRS, the enrichment ratio was not above 0.25.

Turning to VLCN, the enrichment ratio was not above 0.25.

Turning to YCSA, the enrichment ratio was determined as 0.351.

For the variant IELV, the enrichment ratio was found to be 1.31.

In the case of YPGV, the enrichment ratio was not above 0.25.

As to PQYE, the enrichment ratio is not above 0.25.

For LRNQ, the enrichment ratio is not above 0.25.

Consider HEWR, for which the enrichment ratio was not above 0.25.

For the variant KLYL, the enrichment ratio is not above 0.25.

For NVPW, the enrichment ratio is not above 0.25.

Turning to MKKM, the enrichment ratio was not above 0.25.

For AYWH, the enrichment ratio was not above 0.25.

Turning to SSNG, the enrichment ratio was found to be 1.43.

In the case of NCFD, the enrichment ratio was not above 0.25.

In the case of QQRR, the enrichment ratio was not above 0.25.

Take TTTH: the enrichment ratio worked out at 20.3.

As to GRKT, the enrichment ratio was not above 0.25.

As to HWCA, the enrichment ratio is not above 0.25.

For the variant DWVG, the enrichment ratio is not above 0.25.

Turning to TCWK, the enrichment ratio is not above 0.25.

Regarding RHIV, the enrichment ratio was not above 0.25.

Regarding EHTK, the enrichment ratio was not above 0.25.

Consider THRL, for which the enrichment ratio was not above 0.25.

Regarding WCTW, the enrichment ratio was not above 0.25.

Take WCFE: the enrichment ratio was not above 0.25.

GASI: the enrichment ratio was not above 0.25.

For YVPW, the enrichment ratio is not above 0.25.

Take MCYN: the enrichment ratio was found to be 11.3.

For the variant PQNW, the enrichment ratio is not above 0.25.

For the variant SKCQ, the enrichment ratio was found to be 6.54.

Take RTDQ: the enrichment ratio was not above 0.25.

In the case of MCGL, the enrichment ratio was 4.26.

Take TWIV: the enrichment ratio was not above 0.25.

Consider ITRA, for which the enrichment ratio is not above 0.25.

For VGNI, the enrichment ratio was not above 0.25.

In the case of SGCM, the enrichment ratio turned out to be 6.39.

Take MRCT: the enrichment ratio was not above 0.25.

Consider IRYH, for which the enrichment ratio is not above 0.25.

Turning to IPVN, the enrichment ratio is not above 0.25.

TWTH: the enrichment ratio is not above 0.25.

As to RFIS, the enrichment ratio was not above 0.25.

Take IKTV: the enrichment ratio was not above 0.25.

On to IARI, for which the enrichment ratio is not above 0.25.

Turning to NRKA, the enrichment ratio was not above 0.25.

Consider HTWI, for which the enrichment ratio is not above 0.25.

For the variant HSEQ, the enrichment ratio was not above 0.25.

As to TEYA, the enrichment ratio was 2.3.

TNGD: the enrichment ratio is not above 0.25.

Turning to GILG, the enrichment ratio was 12.3.

Turning to NTNN, the enrichment ratio is not above 0.25.

For MSIW, the enrichment ratio is not above 0.25.

For the variant FGWE, the enrichment ratio was not above 0.25.

For FADE, the enrichment ratio was not above 0.25.

Take KPNR: the enrichment ratio was not above 0.25.

In the case of YPYW, the enrichment ratio was not above 0.25.

Turning to KPIR, the enrichment ratio was not above 0.25.

As for DRCY, the enrichment ratio is not above 0.25.

For KGLG, the enrichment ratio was determined as 0.735.

For the variant LWDE, the enrichment ratio is not above 0.25.

With VITC, the enrichment ratio was not above 0.25.

As for QDGH, the enrichment ratio is not above 0.25.

As for DVES, the enrichment ratio was not above 0.25.

On to HPAQ, for which the enrichment ratio is not above 0.25.

With DSWV, the enrichment ratio was not above 0.25.

For the variant PQWG, the enrichment ratio was not above 0.25.

For the variant SPIP, the enrichment ratio is not above 0.25.

As for YSFC, the enrichment ratio was not above 0.25.

Take ILFM: the enrichment ratio is not above 0.25.

Turning to PSMQ, the enrichment ratio was not above 0.25.

In the case of YSEC, the enrichment ratio is not above 0.25.

Turning to QLPL, the enrichment ratio is not above 0.25.

For the variant EDMC, the enrichment ratio is not above 0.25.

With VHLN, the enrichment ratio is not above 0.25.

In the case of EEAT, the enrichment ratio was not above 0.25.

On to WKMY, for which the enrichment ratio is not above 0.25.

On to THRR, for which the enrichment ratio is not above 0.25.

With GQDY, the enrichment ratio is not above 0.25.

With FWDN, the enrichment ratio is not above 0.25.

Take SENI: the enrichment ratio was 4.6.

In the case of LPVR, the enrichment ratio was not above 0.25.

For the variant VNHT, the enrichment ratio is not above 0.25.

For GINS, the enrichment ratio was not above 0.25.

On to DYPS, for which the enrichment ratio is not above 0.25.

WIWN: the enrichment ratio is not above 0.25.

As to TSTH, the enrichment ratio was 5.24.

VVLL: the enrichment ratio came to 3.27.

For LRER, the enrichment ratio was not above 0.25.

Regarding YPST, the enrichment ratio was not above 0.25.

Consider HVPF, for which the enrichment ratio is not above 0.25.

Regarding SHIQ, the enrichment ratio is not above 0.25.

On to MMCC, for which the enrichment ratio is not above 0.25.

Turning to FEVS, the enrichment ratio turned out to be 3.54.

As for MTWF, the enrichment ratio is 11.8.

For NYRI, the enrichment ratio was not above 0.25.

On to SSIY, for which the enrichment ratio was 4.01.

For the variant NSCA, the enrichment ratio was not above 0.25.

For the variant QSHC, the enrichment ratio was found to be 1.36.

Consider QHDH, for which the enrichment ratio came out at 0.83.

As for VMLN, the enrichment ratio was not above 0.25.

Regarding KQAS, the enrichment ratio is not above 0.25.

YHHV: the enrichment ratio is not above 0.25.

VILN: the enrichment ratio was not above 0.25.

Regarding QTCK, the enrichment ratio is not above 0.25.

VCMV: the enrichment ratio was 5.38.

As to ENYR, the enrichment ratio is not above 0.25.

With NMDP, the enrichment ratio is not above 0.25.

For QSGF, the enrichment ratio was determined as 6.78.

In the case of DFER, the enrichment ratio was not above 0.25.

In the case of DKNM, the enrichment ratio was not above 0.25.

As to YKPR, the enrichment ratio is not above 0.25.

On to IYES, for which the enrichment ratio is not above 0.25.

Take KVLF: the enrichment ratio is not above 0.25.

Take GRWA: the enrichment ratio was not above 0.25.

Take LPQD: the enrichment ratio was not above 0.25.

As for GNKY, the enrichment ratio was not above 0.25.

Turning to HYDY, the enrichment ratio is not above 0.25.

Take SPIE: the enrichment ratio is not above 0.25.

As for VVIA, the enrichment ratio is not above 0.25.

As for WGPF, the enrichment ratio was not above 0.25.

With DPGR, the enrichment ratio was not above 0.25.

With QHYK, the enrichment ratio is not above 0.25.

On to KQWR, for which the enrichment ratio is not above 0.25.

On to AEGW, for which the enrichment ratio is not above 0.25.

Take ACAK: the enrichment ratio was 0.412.

Consider ACTS, for which the enrichment ratio turned out to be 5.78.

As to YCID, the enrichment ratio was not above 0.25.

Regarding LSKQ, the enrichment ratio was not above 0.25.

In the case of STSA, the enrichment ratio came to 8.82.

For SFAR, the enrichment ratio is not above 0.25.

As to TFNI, the enrichment ratio was not above 0.25.

As to ARWK, the enrichment ratio was not above 0.25.

Consider PWLR, for which the enrichment ratio is not above 0.25.

Consider PYWW, for which the enrichment ratio is not above 0.25.

With GVAY, the enrichment ratio is not above 0.25.

Turning to NDRA, the enrichment ratio is not above 0.25.

Turning to GSFG, the enrichment ratio was not above 0.25.

Turning to LPHF, the enrichment ratio is not above 0.25.

For NDAQ, the enrichment ratio is not above 0.25.

For LHWQ, the enrichment ratio was not above 0.25.

On to TITM, for which the enrichment ratio came out at 17.6.

Take LIPR: the enrichment ratio is not above 0.25.

NPML: the enrichment ratio is not above 0.25.

EPLM: the enrichment ratio was not above 0.25.

As to TVPA, the enrichment ratio is not above 0.25.

Regarding SVHL, the enrichment ratio was not above 0.25.

Consider PNAM, for which the enrichment ratio is not above 0.25.

As to DHTG, the enrichment ratio is not above 0.25.

Consider YFVV, for which the enrichment ratio is not above 0.25.

Take TSGG: the enrichment ratio was determined as 0.646.

Consider DCPI, for which the enrichment ratio was not above 0.25.

In the case of GIRN, the enrichment ratio was not above 0.25.

Turning to QVSI, the enrichment ratio is not above 0.25.

For the variant VAAP, the enrichment ratio is not above 0.25.

For the variant HWAK, the enrichment ratio was not above 0.25.

Turning to RRMH, the enrichment ratio was not above 0.25.

As for GPGS, the enrichment ratio is not above 0.25.

As to HREL, the enrichment ratio is not above 0.25.

As to KMDD, the enrichment ratio is not above 0.25.

Regarding DQIR, the enrichment ratio was not above 0.25.

Consider LLEF, for which the enrichment ratio is not above 0.25.

As to MYIM, the enrichment ratio was not above 0.25.

As for KECH, the enrichment ratio is not above 0.25.

For STML, the enrichment ratio was determined as 13.4.

KYCC: the enrichment ratio was not above 0.25.

For the variant TVTV, the enrichment ratio was found to be 7.44.

On to DTTE, for which the enrichment ratio was not above 0.25.

Turning to VCWC, the enrichment ratio is not above 0.25.
